{"source": "paper PMC4336329", "about": "(PLoS ONE, 2015)", "note": "About 2,200 (0.71%) of roughly 310,000 compounds showed an effect of 50% or more. The effect is printed as a negative number. The list shows a part of the results.", "data": [{"target": "human ether-à-go-go-related gene (hERG) potassium channel (human, UniProt Q12809)", "sequence (Q12809 whole entry, looked up)": "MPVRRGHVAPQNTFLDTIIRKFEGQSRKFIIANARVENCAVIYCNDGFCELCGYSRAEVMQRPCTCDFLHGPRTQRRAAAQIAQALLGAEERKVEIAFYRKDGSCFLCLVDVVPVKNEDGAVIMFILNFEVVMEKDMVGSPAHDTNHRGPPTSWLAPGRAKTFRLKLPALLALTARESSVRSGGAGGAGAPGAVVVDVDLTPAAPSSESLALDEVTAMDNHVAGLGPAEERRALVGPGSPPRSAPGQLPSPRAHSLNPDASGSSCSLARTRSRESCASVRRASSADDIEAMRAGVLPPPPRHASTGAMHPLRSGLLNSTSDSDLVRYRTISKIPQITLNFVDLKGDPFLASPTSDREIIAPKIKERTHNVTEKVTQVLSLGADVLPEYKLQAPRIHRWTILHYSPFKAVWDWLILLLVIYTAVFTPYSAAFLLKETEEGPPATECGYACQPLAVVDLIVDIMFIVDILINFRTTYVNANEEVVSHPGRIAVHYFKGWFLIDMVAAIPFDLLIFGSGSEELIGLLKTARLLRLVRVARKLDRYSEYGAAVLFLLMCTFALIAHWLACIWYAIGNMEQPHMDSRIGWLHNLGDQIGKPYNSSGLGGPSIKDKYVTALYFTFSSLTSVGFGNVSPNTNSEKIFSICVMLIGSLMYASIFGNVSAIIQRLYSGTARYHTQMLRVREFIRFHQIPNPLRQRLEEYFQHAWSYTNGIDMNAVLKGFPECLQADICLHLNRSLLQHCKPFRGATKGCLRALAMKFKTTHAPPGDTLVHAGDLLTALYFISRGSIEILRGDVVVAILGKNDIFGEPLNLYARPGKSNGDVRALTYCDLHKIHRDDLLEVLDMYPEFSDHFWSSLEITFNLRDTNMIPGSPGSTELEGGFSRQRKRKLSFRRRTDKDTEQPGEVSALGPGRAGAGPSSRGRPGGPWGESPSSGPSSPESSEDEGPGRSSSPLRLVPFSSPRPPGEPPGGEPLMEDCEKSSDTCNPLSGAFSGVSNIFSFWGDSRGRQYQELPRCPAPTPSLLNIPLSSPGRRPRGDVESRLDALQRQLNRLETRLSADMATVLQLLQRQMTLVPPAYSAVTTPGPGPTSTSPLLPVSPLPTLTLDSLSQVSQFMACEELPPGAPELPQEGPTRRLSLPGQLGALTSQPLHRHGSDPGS", "experiment": "primary screen, population patch clamp on CHO cells stably expressing hERG", "units": {"hERG current change (%, negative = inhibition) at 1uM": "%"}, "values": [{"smiles": "COc1ccc(-c2csc(NC(=O)C3CC(=O)N(Cc4ccco4)C3)n2)cc1", "note": "(stereo not shown)", "hERG current change (%, negative = inhibition) at 1uM": 6.42}, {"smiles": "CCCCCCCNC(=O)C1(CC2CC(c3ccc(Cl)cc3)=NO2)CCN(C(=O)c2ccccc2)CC1", "note": "(stereo not shown)", "hERG current change (%, negative = inhibition) at 1uM": 7.86}, {"smiles": "COc1ccc(C(=O)c2coc3ccc(O)c(CN(C)C)c23)cc1", "hERG current change (%, negative = inhibition) at 1uM": -29.3}, {"smiles": "COCCCNC(NC(=O)c1ccc(C)cc1)C(Cl)(Cl)Cl", "note": "(stereo not shown)", "hERG current change (%, negative = inhibition) at 1uM": 4.05}, {"smiles": "CCOC(=O)c1ccccc1NC(=O)CN1CCC(n2nnc3cc(C(F)(F)F)ccc32)CC1", "hERG current change (%, negative = inhibition) at 1uM": 7.58}, {"smiles": "CCOc1ccc(C(=O)NCC(=O)OCCN2C(=O)c3ccccc3C2=O)cc1OCC", "hERG current change (%, negative = inhibition) at 1uM": 5.56}, {"smiles": "COc1cc2[nH]c(=O)n(CCC(=O)NCCCN3CCN(c4ccccc4F)CC3)c(=O)c2cc1OC", "hERG current change (%, negative = inhibition) at 1uM": 0.776}, {"smiles": "CCCCN1C(=S)SC(C)(C)C1/[N+]([O-])=C/c1ccc(S(=O)(=O)NC)cc1", "note": "(stereo not shown)", "hERG current change (%, negative = inhibition) at 1uM": 10.5}, {"smiles": "CCOc1cc(/C=N/NC(=O)c2cc(-c3cccnc3)nc3ccccc23)ccc1O", "hERG current change (%, negative = inhibition) at 1uM": 15.9}, {"smiles": "O=C(O)CCCC(=O)Nc1ccccc1Oc1ccccc1", "hERG current change (%, negative = inhibition) at 1uM": 7.99}, {"smiles": "COc1ccc(N/C=C2\\CCc3ccccc3C2=O)cc1", "hERG current change (%, negative = inhibition) at 1uM": 9.52}, {"smiles": "Cc1ccccc1N1C(=O)C(Cl)=C(N2CCCCCC2)C1=O", "hERG current change (%, negative = inhibition) at 1uM": 4.97}, {"smiles": "Cc1ccc2c(=O)cc(C(=O)NCc3ccccc3)oc2c1C", "hERG current change (%, negative = inhibition) at 1uM": 12.1}, {"smiles": "CCCSc1nnc(-c2c[nH]c3ccccc23)n1C", "hERG current change (%, negative = inhibition) at 1uM": 9.4}, {"smiles": "COC(=O)[C@@H]1C(c2c(OC)cc(OC)cc2OC)=NO[C@H]1C(=O)OC", "hERG current change (%, negative = inhibition) at 1uM": 12.4}, {"smiles": "COCCn1nnnc1C(c1ccc(OC)c(OC)c1)N1CCN(c2nc3ccccc3s2)CC1", "note": "(stereo not shown)", "hERG current change (%, negative = inhibition) at 1uM": 2.83}, {"smiles": "CCOC(=O)C1=C(C)N(CC)C(=S)NC1c1ccccc1OC(F)F", "note": "(stereo not shown)", "hERG current change (%, negative = inhibition) at 1uM": 4.8}, {"smiles": "O=c1c2ccccc2nc2n1C(CSCc1cccc(C(F)(F)F)c1)CS2", "note": "(stereo not shown)", "hERG current change (%, negative = inhibition) at 1uM": -11.3}, {"smiles": "COc1ccccc1NC(=O)COC(=O)C1C2CC3OC(=O)C1C3C2", "note": "(stereo not shown)", "hERG current change (%, negative = inhibition) at 1uM": 14.4}, {"smiles": "CCC(C(=O)OC)n1cnc2c(nnn2-c2ccc(C)cc2)c1=O", "note": "(stereo not shown)", "hERG current change (%, negative = inhibition) at 1uM": 3.12}, {"smiles": "COCc1cc(Sc2cccc(Cl)c2Cl)nc(-c2ccccc2)n1", "hERG current change (%, negative = inhibition) at 1uM": 9.46}, {"smiles": "CC1=C(C(=O)OCc2ccccc2)C(c2ccccc2OC(F)F)NC(=O)N1", "note": "(stereo not shown)", "hERG current change (%, negative = inhibition) at 1uM": -0.0598}, {"smiles": "Cc1cc(NC(=O)c2ccccc2)ncc1NC(=O)c1ccco1", "hERG current change (%, negative = inhibition) at 1uM": 11.8}, {"smiles": "COc1cccc(NC(=O)CSc2nnc(CNC(=O)c3ccco3)n2C)c1", "hERG current change (%, negative = inhibition) at 1uM": 1.34}, {"smiles": "CCN(CC(=O)NCc1ccc(F)cc1)C(=O)CCNS(=O)(=O)c1cccc(C)c1", "hERG current change (%, negative = inhibition) at 1uM": -15.2}, {"smiles": "CCCCCC(CC(=O)NO)C(=O)NC(C(=O)N1CCCC1CO)C(C)C", "note": "(stereo not shown)", "hERG current change (%, negative = inhibition) at 1uM": 13.7}, {"smiles": "O=C(c1cc(COc2ccccc2)on1)N1CCCC(OCc2cccnc2)C1", "note": "(stereo not shown)", "hERG current change (%, negative = inhibition) at 1uM": 8.98}, {"smiles": "CCOc1ccc(NC(=S)N(CCc2c(C)[nH]c3ccc(C)cc23)Cc2ccco2)cc1", "hERG current change (%, negative = inhibition) at 1uM": 7.46}, {"smiles": "O=C(O)c1ccc(NC(=O)c2cccc(N3C(=O)C4C5CCC(C5)C4C3=O)c2)cc1", "note": "(stereo not shown)", "hERG current change (%, negative = inhibition) at 1uM": 19.5}, {"smiles": "O=C(O)C1=CC[C@@H](c2ccc(Cl)cc2)N(S(=O)(=O)c2ccc(Cl)cc2)[C@H]1c1ccccc1", "hERG current change (%, negative = inhibition) at 1uM": 5.54}, {"smiles": "O=C(CCN1C(=O)COc2ccccc21)NCCC1=CCCCC1", "hERG current change (%, negative = inhibition) at 1uM": 6.68}, {"smiles": "C(#CCN1CCCC1)CC(c1ccccc1)c1ccccc1.Cl", "hERG current change (%, negative = inhibition) at 1uM": -23.5}, {"smiles": "CCc1nc(SCC(=O)Nc2cccc(C(F)(F)F)c2)c2c(=O)n(C)c(=O)n(C)c2n1", "hERG current change (%, negative = inhibition) at 1uM": 7.08}, {"smiles": "COc1c(C(=O)Nc2ccccc2N2CCOCC2)cc2ccccc2c1Br", "hERG current change (%, negative = inhibition) at 1uM": 24.1}, {"smiles": "CC1CN(CCOc2ccc(Cl)c(Cl)c2)CC(C)O1.O=C(O)C(=O)O", "note": "(stereo not shown)", "hERG current change (%, negative = inhibition) at 1uM": 3.66}, {"smiles": "CSc1nnc(Cn2c(=O)sc3ccccc32)n1CCc1ccccc1", "hERG current change (%, negative = inhibition) at 1uM": 0.53}, {"smiles": "COc1cc2c(cc1OC)CN(C(=S)Nc1cccc(Cl)c1C)CC2", "hERG current change (%, negative = inhibition) at 1uM": 2}, {"smiles": "CCOCCCn1c(SCC(=O)NC(C)(C)C)nc2ccccc2c1=O", "hERG current change (%, negative = inhibition) at 1uM": 10.9}, {"smiles": "CCn1cc(C(=O)N[C@@H](CCSC)C(=O)NCCO)c(=O)c2cc3c(cc21)OCO3", "hERG current change (%, negative = inhibition) at 1uM": 12.8}, {"smiles": "O=C(COc1ccc(Cl)cc1)Nc1nc(-c2ccncc2)cs1", "hERG current change (%, negative = inhibition) at 1uM": 12.9}, {"smiles": "Cc1cccc(NC(=S)NC2CCCC2)n1", "hERG current change (%, negative = inhibition) at 1uM": -1.16}, {"smiles": "O=C(Nc1c2c(nn1-c1cccc(Cl)c1)CS(=O)(=O)C2)C1CC1", "hERG current change (%, negative = inhibition) at 1uM": -16.9}, {"smiles": "COCCNC(=O)/C(C#N)=C/c1cc(C(C)C)c(OC)cc1C", "hERG current change (%, negative = inhibition) at 1uM": 17.1}, {"smiles": "Cl.O=C(CN1CCCCCC1)N1c2ccccc2Sc2ccc(C(F)(F)F)cc21", "hERG current change (%, negative = inhibition) at 1uM": 7.57}, {"smiles": "CCNC(=S)N(Cc1c(C)noc1C)c1ccccc1", "hERG current change (%, negative = inhibition) at 1uM": 1.7}, {"smiles": "COc1ccc(CN2CCNC(=O)C2CC(=O)NC2Cc3ccccc3C2)c(OC)c1", "note": "(stereo not shown)", "hERG current change (%, negative = inhibition) at 1uM": 29.3}, {"smiles": "CCCCOC(=O)c1ccc(NC(=O)C(=O)CC(=O)c2ccc(OC)cc2)cc1", "hERG current change (%, negative = inhibition) at 1uM": 6.37}, {"smiles": "CC(C)NC(=O)CC(=O)N/N=C/c1ccccc1F", "hERG current change (%, negative = inhibition) at 1uM": 15.8}, {"smiles": "CCOC(=O)C1=C(N)OC2=C(C(=O)CC(C)(C)C2)C12C(=O)Nc1ccccc12", "note": "(stereo not shown)", "hERG current change (%, negative = inhibition) at 1uM": 18.9}, {"smiles": "CCOc1ccccc1C1C(C(N)=O)=C(C)Nc2nc(-c3ccccc3Cl)nn21", "note": "(stereo not shown)", "hERG current change (%, negative = inhibition) at 1uM": 6.39}, {"smiles": "Cc1ccc(NC(=O)CSC2=C(C#N)C(c3ccc4c(c3)OCO4)C3=C(CCCC3=O)N2)c(C)c1", "note": "(stereo not shown)", "hERG current change (%, negative = inhibition) at 1uM": -12.8}, {"smiles": "CCc1ccc(N2C(=O)NC(=O)C(CCc3ccncc3)(CCc3ccncc3)C2=O)cc1", "hERG current change (%, negative = inhibition) at 1uM": -41.1}, {"smiles": "O=S(=O)(c1cccc(-c2csc(N/N=C/c3ccco3)n2)c1)N1CCOCC1", "hERG current change (%, negative = inhibition) at 1uM": 11.8}, {"smiles": "O=c1[nH]c(-c2ccccc2)c(-c2ccccc2)[nH]1", "hERG current change (%, negative = inhibition) at 1uM": 13.3}, {"smiles": "CC(C)(CN1CCCC1)NS(=O)(=O)c1ccc(Cl)cc1", "hERG current change (%, negative = inhibition) at 1uM": 26.4}]}]}
